Results as given in PubChem BioAssay AID1645882 (National Center for Advancing Translational Sciences (NCATS), 2021).
Among all 16,000 compounds or so, about 120 (0.75%) were called active. Not shown: some 4% with an inconclusive outcome. The call rests on the fitted dose curve; in most records, active means well fitted inhibition curve with a large enough effect; inconclusive means small, poorly fitted or top-dose-only effect; inactive means no such curve, though single readings can be large or run the other way. The list shows a part of the results.
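Further: plate controls were DMSO for no effect and ATA control for full effect; nearly all actives have a fitted effect of over 75% in size.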

These compounds were tested against Rap guanine nucleotide exchange factor 3 (Homo sapiens) (UniProt O95398) (assay: Validation qHTS for antagonist of cAMP-regulated guanine nucleotide exchange factor 3 (EPAC1)). Settings: EPAC1 Rap1B-BODIPY-GDP exchange, fluorescence; series mostly up to 150 µM; activity change, negative = inhibition: at the top concentration.
Chain of UniProt O95398 (O95398 whole entry, looked up): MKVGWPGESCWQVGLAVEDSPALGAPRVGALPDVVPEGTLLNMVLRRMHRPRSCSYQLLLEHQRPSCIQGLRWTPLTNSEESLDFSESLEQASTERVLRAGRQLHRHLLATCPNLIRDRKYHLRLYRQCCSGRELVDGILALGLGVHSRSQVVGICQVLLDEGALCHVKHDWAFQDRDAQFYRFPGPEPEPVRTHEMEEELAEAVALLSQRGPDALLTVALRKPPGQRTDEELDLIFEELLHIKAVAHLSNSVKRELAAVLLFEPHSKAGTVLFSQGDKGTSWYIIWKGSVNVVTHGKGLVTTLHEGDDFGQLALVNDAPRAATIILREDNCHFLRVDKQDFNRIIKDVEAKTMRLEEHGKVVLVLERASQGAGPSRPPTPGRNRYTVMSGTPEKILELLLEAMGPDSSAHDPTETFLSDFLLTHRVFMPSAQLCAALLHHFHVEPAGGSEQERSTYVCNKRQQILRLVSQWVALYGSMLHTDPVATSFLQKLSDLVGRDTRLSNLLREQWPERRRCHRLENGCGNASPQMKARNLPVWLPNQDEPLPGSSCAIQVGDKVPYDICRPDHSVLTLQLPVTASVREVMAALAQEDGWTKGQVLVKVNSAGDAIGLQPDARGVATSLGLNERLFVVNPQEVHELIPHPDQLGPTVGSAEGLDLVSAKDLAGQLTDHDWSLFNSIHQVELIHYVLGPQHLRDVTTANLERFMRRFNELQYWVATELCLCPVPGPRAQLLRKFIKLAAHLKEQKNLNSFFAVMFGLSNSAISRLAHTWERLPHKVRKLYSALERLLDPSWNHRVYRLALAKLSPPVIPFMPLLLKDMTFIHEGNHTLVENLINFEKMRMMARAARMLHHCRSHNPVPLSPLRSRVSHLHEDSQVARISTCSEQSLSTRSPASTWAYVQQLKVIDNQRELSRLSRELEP
In short: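 Nucleotide exchange followed as fluorescence loss when BODIPY-GDP leaves Rap1B (480 nm excitation, 540 nm emission), read at 5 min intervals over 30 min. Reaction: 100 nM EPAC1, 250 nM RAP1B-BODIPY-GDP, 50 uM GDP; ATA and DMSO define normalization.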
In the case of `C=CCc1ccc(OC(=O)c2ccccc2)c(OC)c1`, the “activity change, negative = inhibition” value is reported as inactive: -2.05%. `COc1cc(OC)c(OC)cc1CN1CCCC(c2nc(C)ncc2-c2ccc(F)cc2)C1` (stereo unspecified) was tested, and the “activity change, negative = inhibition” value was inactive: 5.09%. For `O=C(NCCc1nnc2n1CCN(Cc1cc3ccccc3o1)CC2)c1ccoc1`, the “activity change, negative = inhibition” value was inactive: 10.4%. With `O=C(C[n+]1csc2ccccc21)c1cccc([N+](=O)[O-])c1` the “activity change, negative = inhibition” value was inactive: 1.68%. With `O=C(c1ccncc1)N1CCC[C@@]2(CCN(c3ccccn3)C2)C1` the “activity change, negative = inhibition” value was inactive: 9.83%. With `COc1ccc(S(=O)(=O)Nc2nnc(CC(C)C)s2)cc1` the activity change, negative = inhibition was “inactive”. With `CC1(C)S[C@H]2[C@@H](NC(=O)C(N)c3ccccc3)C(=O)N2[C@H]1C(=O)O` (stereo partly specified) the “activity change, negative = inhibition” value was inactive: 11.9%. With `O=S(=O)(c1ccccc1)N1CCC[C@@]2(CCN(Cc3ccccc3)C2)C1` the “activity change, negative = inhibition” value was inactive: -11.5%. `CN1CCN(c2ncncc2-c2ccc(C(=O)N(C)C)cc2)CC1` was tested, and the “activity change, negative = inhibition” value was inactive: 12.1%. In the case of `CC12CC[C@@](C(=O)O)(C(=O)C1=O)C2(C)C`, the “activity change, negative = inhibition” value is reported as inactive: 3.58%. With `CC(=O)c1ccc(-c2ccc3c4c(ccc3c2)OC(CNC(=O)[C@@H]2CCCN2C(C)=O)C4)s1` (stereo partly specified) the “activity change, negative = inhibition” value was inactive: 1.07%. For `Cc1ccc(O)c2ncccc12`, the “activity change, negative = inhibition” value was inactive: -2.33%. In the case of `Cc1cnc(-n2ncc(C(=O)N3CCN(C(C)C)CC3)c2-c2ccco2)nc1-c1ccc(F)cc1`, the “activity change, negative = inhibition” value is reported as inactive: 14.7%. `C[Se]CCC(N)C(=O)O` (stereo unspecified) was tested, and the “activity change, negative = inhibition” value was inactive: 32.4%. For `CC(C)CSc1nnc(CNC(=O)c2ccccn2)n1C`, the “activity change, negative = inhibition” value was inactive: 16.1%. `O=c1c(CCc2ccccc2)nc2cnc(N3CCOCC3)nc2n1-c1ccccc1` was tested, and the “activity change, negative = inhibition” value was inactive: 17.3%. For `Cc1ccc2[nH]cc(C(O)c3c[nH]c4ccc(C)cc34)c2c1`, the “activity change, negative = inhibition” value was inactive: -2.46%. For `Cc1noc(C)c1-c1ccc2ncnc(N(C)C)c2c1`, the “activity change, negative = inhibition” value was inactive: 1.44%. In the case of `O=C(c1cc(C(F)(F)F)cc(C(F)(F)F)c1)N1CCC2(CC1)CN(c1ncccn1)C2`, the “activity change, negative = inhibition” value is reported as inactive: 8.71%. For `COc1ccc2c(c1)-c1nc(-n3ncc(C(=O)N(C)C(C)c4ccon4)c3C3CC3)ncc1CC2` (stereo unspecified), the “activity change, negative = inhibition” value was inactive: -1.85%. In the case of `CN(C)CCC=C1c2ccccc2CCc2ccccc21`, the activity change, negative = inhibition is reported as “inactive”. With `Cc1ccnc2c1NC(=O)c1cccnc1N2C1CC1` the “activity change, negative = inhibition” value was inactive: 14.8%. For `Cn1cccc1C(=O)N1CCC2(CCCN(C(=O)Nc3cccc(C#N)c3)C2)CC1`, the “activity change, negative = inhibition” value was inactive: 20.6%. In the case of `Cc1cnc(-n2ncc(C(=O)NCCc3ccncc3)c2-c2cccs2)nc1-c1ccc(F)cc1`, the “activity change, negative = inhibition” value is reported as inactive: -3.02%. `C/C=C(\C)C(=O)O[C@H]1CC(C)=C2C(=O)C=C(C)C2[C@@H]2OC(=O)[C@@](C)(OC(=O)C=C(C)C)C21` (stereo partly specified) was tested, and the “activity change, negative = inhibition” value was inactive: -12.6%. For `CC(C)[C@H](CO)Nc1nc(Nc2cccc(Cl)c2)c2ncn(C(C)C)c2n1`, the “activity change, negative = inhibition” value was inactive: -13.6%. For `O=c1c2ccccc2oc2ccc(-c3ccoc3)cc12`, the “activity change, negative = inhibition” value was inactive: -12.9%. `CCCNC(=O)[C@H]1O[C@@H]1C(=O)N[C@H](C(=O)N1CCC[C@H]1C(=O)OC)[C@@H](C)CC` was tested, and the “activity change, negative = inhibition” value was inactive: 22.3% [at 201 µM]. With `COc1ccc(CCNC[C@H](O)c2ccc(O)cc2)cc1OC` the “activity change, negative = inhibition” value was inactive: 19.1%. `Cc1[nH]c(=O)c(C#N)cc1-c1ccncc1` was tested, and the activity change, negative = inhibition was “inactive”. With `O=c1c(-c2cc(F)cc(F)c2)nc2cncnc2n1C1CC1` the “activity change, negative = inhibition” value was inactive: 14.2%. For `Cn1c(=O)c2[nH]cnc2n(C)c1=O`, the activity change, negative = inhibition was “inactive”. With `CC(C)[C@@H](CSc1ccccc1)N1CCN(Cc2ccccc2)CCC1=O` the “activity change, negative = inhibition” value was inactive: 8.17%. `O=C(OCC1(COC(=O)c2cccnc2)CCCC(COC(=O)c2cccnc2)(COC(=O)c2cccnc2)C1O)c1cccnc1` was tested, and the “activity change, negative = inhibition” value was inactive: 33.4%. With `Oc1ccc(Cl)c2c1CCC2` the “activity change, negative = inhibition” value was inactive: 4.68%. In the case of `CC1=C(C(N)=O)N2C(=O)[C@@H](NC(=O)Cc3ccccc3)C2SC1` (stereo partly specified), the “activity change, negative = inhibition” value is reported as inactive: -3.04%. With `COC1C[C@@H](O[C@@H]2C(C)C(=O)OC(C)C(C)[C@H](OC(C)=O)C(C)C(=O)[C@@]3(CO3)CC(C)C(OC3OC(C)CC(N(C)C)[C@H]3OC(C)=O)C2C)OC(C)[C@@H]1OC(C)=O` (stereo partly specified) the “activity change, negative = inhibition” value was inactive: 25.2%. For `CCN1CCN(C(=O)c2cnn(-c3ncc4c(n3)-c3ccccc3CCC4)c2COC)CC1`, the “activity change, negative = inhibition” value was inactive: -3.59%. In the case of `Cn1c(=O)c(-c2cc(F)cc(F)c2)nc2cnc(Oc3cccc(Cl)c3)nc21`, the “activity change, negative = inhibition” value is reported as inactive: 9.9%. In the case of `C[C@@]12C(=O)OC(=O)[C@@]1(C)C1CCC2O1`, the “activity change, negative = inhibition” value is reported as inactive: 10.3%. For `COCCn1c(=O)c(C)nc2cnc(Oc3cccc(Cl)c3)nc21`, the “activity change, negative = inhibition” value was inactive: 12.9%. In the case of `O=C(c1csnn1)N1CCC2(CCCN(c3ccccn3)C2)CC1`, the “activity change, negative = inhibition” value is reported as inactive: 6.37%. For `CCOC(=O)C[C@H]1c2cc(C(F)(F)F)ccc2S(=O)(=O)N1C(C)C`, the “activity change, negative = inhibition” value was inactive: -1.57%. With `COc1ncc2nc(-c3ccc(F)cc3)c(=O)n(CCc3ccccc3)c2n1` the “activity change, negative = inhibition” value was inactive: 16.4%. In the case of `NC(N)=NCCNS(=O)(=O)c1cccc2cnccc12`, the “activity change, negative = inhibition” value is reported as inactive: -0.457%. With `COc1ccc(NC(=O)[C@@H]2CC=C[C@@H]3CCN(Cc4ccc(Cl)c(Cl)c4)C(=O)[C@@H]32)cc1` the “activity change, negative = inhibition” value was inactive: -17%. In the case of `C=CCN1CCN(c2nc3ccccc3nc2C#N)CC1`, the activity change, negative = inhibition is reported as “inactive”. With `COc1ccc(C(=O)N2CCC3(CCN(C(=O)Nc4cccc(F)c4)CC3)CC2)cc1` the “activity change, negative = inhibition” value was inactive: -2.45%. In the case of `Cc1c(C(N)=O)cc([N+](=O)[O-])cc1[N+](=O)[O-]`, the “activity change, negative = inhibition” value is reported as inactive: 0.856%. With `CN1CCC2(CC1)CCN(C(=O)c1cccc(F)c1)CC2` the “activity change, negative = inhibition” value was inactive: 12%. `CCN(CC)C[C@@H]1CCCCN1CC(=O)N1c2ccccc2C(=O)Nc2cccnc21` was tested, and the “activity change, negative = inhibition” value was inactive: 5.98%.
